Our source for the binding values is publication PMC8421406, “C9orf72-derived arginine-rich poly-dipeptides impede phase modifiers” (Nature Communications, 2021).

The chains behind the UniProt entries cited, without tags or fusion partners. Residues count along the entry.
UniProt Q92973: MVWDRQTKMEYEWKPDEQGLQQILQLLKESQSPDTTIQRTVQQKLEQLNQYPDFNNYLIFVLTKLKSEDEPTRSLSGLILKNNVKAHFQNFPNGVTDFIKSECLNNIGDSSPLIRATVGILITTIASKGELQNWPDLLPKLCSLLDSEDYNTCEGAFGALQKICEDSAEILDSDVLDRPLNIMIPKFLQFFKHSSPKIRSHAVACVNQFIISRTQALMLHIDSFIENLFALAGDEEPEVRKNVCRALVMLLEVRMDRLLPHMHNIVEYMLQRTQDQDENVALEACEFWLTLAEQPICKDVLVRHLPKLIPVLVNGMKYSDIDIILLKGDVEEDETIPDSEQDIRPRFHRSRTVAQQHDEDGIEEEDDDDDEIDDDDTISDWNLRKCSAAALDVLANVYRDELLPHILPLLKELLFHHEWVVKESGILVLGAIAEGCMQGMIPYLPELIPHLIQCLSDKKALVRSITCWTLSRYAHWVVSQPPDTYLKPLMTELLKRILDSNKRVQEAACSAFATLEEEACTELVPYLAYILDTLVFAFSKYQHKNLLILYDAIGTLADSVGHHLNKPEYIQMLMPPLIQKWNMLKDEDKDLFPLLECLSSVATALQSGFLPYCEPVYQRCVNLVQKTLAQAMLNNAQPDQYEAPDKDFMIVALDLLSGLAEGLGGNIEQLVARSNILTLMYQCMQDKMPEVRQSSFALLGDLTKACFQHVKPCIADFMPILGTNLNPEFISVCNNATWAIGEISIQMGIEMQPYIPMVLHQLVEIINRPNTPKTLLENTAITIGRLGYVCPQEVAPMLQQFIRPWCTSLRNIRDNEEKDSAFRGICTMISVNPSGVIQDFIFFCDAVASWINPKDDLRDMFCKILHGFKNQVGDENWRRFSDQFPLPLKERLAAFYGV
UniProt P02769, residues 25-607: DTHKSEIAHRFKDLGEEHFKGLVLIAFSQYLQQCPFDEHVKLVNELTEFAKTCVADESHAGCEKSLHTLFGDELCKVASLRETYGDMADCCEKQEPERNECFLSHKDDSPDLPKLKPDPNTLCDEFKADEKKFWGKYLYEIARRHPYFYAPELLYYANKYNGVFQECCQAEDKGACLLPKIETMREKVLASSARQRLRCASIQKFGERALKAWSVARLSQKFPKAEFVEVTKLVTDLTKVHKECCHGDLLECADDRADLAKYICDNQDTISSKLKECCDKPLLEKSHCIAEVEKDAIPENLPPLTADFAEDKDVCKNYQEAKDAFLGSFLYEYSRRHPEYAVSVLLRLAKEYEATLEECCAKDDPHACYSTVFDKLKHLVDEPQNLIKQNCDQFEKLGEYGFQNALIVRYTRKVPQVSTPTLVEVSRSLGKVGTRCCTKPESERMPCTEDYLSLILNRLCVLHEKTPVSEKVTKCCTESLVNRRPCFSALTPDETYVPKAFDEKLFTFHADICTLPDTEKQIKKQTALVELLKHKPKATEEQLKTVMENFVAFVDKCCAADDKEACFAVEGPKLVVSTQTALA

The target in test [1] is T1, Glutathione S-transferase (GST):PR18.
T1 sequence: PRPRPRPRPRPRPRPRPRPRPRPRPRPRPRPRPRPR
In words: pull-down; 4 μg GST protein immobilized on 30 μL GSH sepharose beads, incubated with equal molar protein for 20–30 min, washed three times; 20 mM HEPES pH 7.4, 150 mM NaCl, 10% glycerol, 2 mM Mg(OAc)2, 2 mM DTT; SDS-PAGE, Coomassie; both purified.

Test [2] has as its target T2, GST:PR18 (Glutathione S-transferase fused to 18 repeats of Pro-Arg).
T2 sequence: T1 sequence
In words: pull-down; 4 µg GST protein immobilized on 30 µL GSH sepharose beads, incubated with equal molar protein 20–30 min, washed three times; 20 mM HEPES pH 7.4, 150 mM NaCl, 10% glycerol, 2 mM Mg(OAc)2, 2 mM DTT; SDS-PAGE, Coomassie; both purified.

Another test concerns the target T3, HA:SBP:GFP:PR20:HA.
T3 sequence: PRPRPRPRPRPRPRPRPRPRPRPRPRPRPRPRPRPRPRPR
Put plainly: co-IP; HeLa cytosol extracts of cells transfected with HA:SBP:GFP:PR20:HA, mixed with Streptavidin Mag Sepharose at 4 °C overnight, washed five times with CE buffer; blot with anti-Kapβ2 and anti-HA.

No constants are given. Whether binding was seen depends on the method and setting. For some of these results: In cells and extracts the contact can be indirect. Some results given as binding are weak or reduced against the parent protein; the word gives no strength. Sequences can lack the tags named with a protein.

As for “karyopherin-β2 (Kapβ2) (from UniProt Q92973 1-898) (receptor)”, the binding entry in test [1] and in test [2] was “binds” in each case.

Turning to “endogenous Kapβ2 (from UniProt Q92973 1-898) (receptor)”, in the test with HA:SBP:GFP:PR20:HA, the binding entry was “binds”.

In the case of BSA (from UniProt P02769 25-607), the binding result in test [1] and in test [2] was “no binding” in each case.

Consider “Lysozyme (from UniProt P00698 19-147) (enzyme)”, for which the binding entry in test [1] and in test [2] was “no binding” in each case.
